Measurements published in the supplement of paper PMC11417369.
The other results are listed elsewhere or left out.

Test system: PfHDP1 homeodomain (GST-tagged)
Experiment: gcPBM binding intensity (ln(normalized median fluorescence intensity)); higher = stronger DNA binding
Outline: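 Binding intensity is defined as the maximum Masliner-normalised natural-log median intensity across replicate spots for either probe orientation. It was measured on an Agilent 4 × 180k array of primer-extended double-stranded 36-bp intergenic genomic probes and negative controls, to which GST-tagged P. falciparum DNA-binding domains made in E. coli were applied for 1 h in 1× PBS with 1% milk, 0.2 mg/ml BSA, 0.5% salmon testes DNA and 0.03% Triton X-100. Detection was by Alexa488 anti-GST antibody and scanning at 488 nm.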

| Sequence | gcPBM binding intensity (ln) |
| --- | --- |
| ATTTTTTTTTTTTTTATTCCCCTTTCGAAAAAAACC [CACACA_negctrl_site1139] | 6.58 |
| CATATTGAATATTTAACACACATTTCGCTTAATTCA [CACACA_site2086] | 6.46 |
| GCAACAAAAAATCAGACATGCATTTTAAAATGAATA [TGCATGCA_site846] | 6.29 |
| ACACATTATAAAACTGTCGCTCATAAAGAAGAATGA [CACACA_negctrl_site999] | 6.67 |
| GAATGAATTGTTATTAGTACACATGTGAATTATAAA [XGTACX_site6790] | 6.45 |
| TATAAAAAAAAAATTTGTACATAATAATATATATAT [XGTACX_site2074] | 8.01 |
| TTATATATAAAATACTGTACATTTAATTGATGGTTT [XGTACX_site2073] | 6.3 |
| AGAAAAAAAAAAAGTACACACATATAATATATATAT [CACACA_site2973] | 8.2 |
| AGTTAATGAATAGGCACACATATATCTGTATAAATA [CACACA_site4448] | 6.49 |
| TCAAATAATAAGTATGCATGCTATATTTATATATAC [TGCATGCA_site920] | 6.37 |
| AAACGTACATAATACACACACATGTATACCTATAAA [CACACA_site7051] | 7.1 |
| TACATTTTACTTGTTACACACATATAAAATTAACCA [CACACA_site2922] | 6.59 |
| AAAAGGTATAGAAACACACACACGTGAATATAGTTT [CACACA_site1905] | 6.49 |
| ATATTTTATTTTAATACACACAAGTTATATAATCAC [CACACA_site780] | 6.63 |
| CACACCCACCAACACACACACAAAAAAAAAAAGAAA [CACACA_site500] | 6.72 |
| AAAAAAAACGGACACACACACATAAATATATATAAA [CACACA_site4260] | 6.9 |
| ACATATGTTTTATGTAGTACTTATTTATTATTATAT [XGTACX_site7528] | 6.45 |
| TACAAATTTATATAAAGTACAAAAAATAATAAAAAT [XGTACX_site7355] | 7.01 |
| AAAAAAAAAAAAAGTGCACACATAAAAATATGATCT [CACACA_site8090] | 8.92 |

| Sequence | gcPBM binding intensity (ln) |
| --- | --- |
| ATGAATAAATAGGTCACACACAAATATATATAAATA [CACACA_site2416] | 6.94 |
| TTGTTCGATATATGCACACAGTTTTGTTATTTTTCC [CACACA_site4972] | 9.91 |
| CACTACACTGTTAATAGTACATATATTTAAAAAAAA [XGTACX_site7371] | 6.73 |
| ACATCATATTAAGAAAGTACAAAAAGAGAACATATA [XGTACX_site1268] | 7.14 |
| AAACAAAATTTATTTCAAAGTTAATAATTTTTATGT [CACACA_negctrl_site232] | 5.84 |
| ATATTGTAGATATTGTGTACATATTTTACAACTTTT [XGTACX_site7621] | 6.33 |
| TATGTACACCCATATACACACCTCTATAATATATAT [CACACA_site4563] | 7.13 |
| ATAAAAAATAAAATAAATAAAAAATATTTACCCTTA [TGCATGCA_negctrl_site396] | 5.92 |
| TCATTAAAAACTAAAAGTACTCAATATTATGAACAT [XGTACX_site7807] | 6.39 |
| TAAAAAAATAAATATACACACATATATATATATATA [CACACA_site1089] | 9.28 |
| TGTAGAAATGGGTGCACACACATATAAAATCTATAT [CACACA_site7224] | 10.4 |
| GGATTTATTATATATACACACATACAGATATATATA [CACACA_site5222] | 6.71 |
| CATATATATTTGTTCACACACACACTAGAAAAAAAA [CACACA_site5380] | 6.72 |
| AAATATAATATACAAAGTACTTTTTCATCTTATATA [XGTACX_site8771] | 6.26 |
| AGACAATAATATAATCGTACAATAAATAAAATAAAA [XGTACX_site5231] | 6.77 |
| AAAATAATCTTTTGATTGCACTGTTACATTTTTTCT [GTGCAC_site9563] | 7.41 |
| TAAAGAGAAATATGTACATGCGAAAATGCCTTAAAT [TGCATGCA_site1050] | 7.04 |
| TGAACAAAAAAAAATTGTACTTTTTTTTTAATATTT [XGTACX_site7172] | 6.03 |
| TTTCTTCGAAATAGAACACTTGTGCAAAATAAGCAA [XGTACX_negctrl_site361] | 11.2 |

| Sequence | gcPBM binding intensity (ln) |
| --- | --- |
| ATTTTTTTATAAAATTTTTATATAATTTATTATAAA [GTGCAC_negctrl_site96] | 6.3 |
| AAAAAAAACAATCTCATACACACTAGGGATTAATTA [CACACA_site1776] | 6.17 |
| ATATATATATATATATGTACATATTTTATAACTGTA [XGTACX_site5395] | 9.22 |
| ATTTATACATATAAACGTACATACATATATAATATT [XGTACX_site2969] | 6.52 |
| AACATAAAACGTAATATATTACAAATATAAACAATC [CACACA_negctrl_site1675] | 6.99 |
| TTACCATTTGAAAATTCACACACTTTATTTTGTTAT [CACACA_site3799] | 6.77 |
| TTTGGAATATTAATTGTGCACTTAAAAAGTTAATTA | 9.76 |
| CTTATGTGCATACCTACACACTTACATATATATATA [CACACA_site8973] | 9.47 |
| TTAAATGTTGGTTGTAGTACTCCATATGTTGTTTTA [XGTACX_site5312] | 6.71 |
| TGATACTGCAAAAAATATAAAAAAATAATAAAATAA [CACACA_negctrl_site791] | 6.34 |
| TATATATATATAAGATGTACCCTTTGAAATAATAAT [XGTACX_site7215] | 8.66 |
| TGGATAAAATAAAAATGTACTTAACATTTATATTTT [XGTACX_site712] | 6.28 |
| AACAAAAGTAATTAAAAACAATACAAACATATGTTT [XGTACX_negctrl_site220] | 6.24 |
| ATATATAGGTTCCCTTTTCTTTTTTTTTTTTTTTTT [CACACA_negctrl_site1159] | 6.25 |
| ATCATTCAAAAATGCTGTACTAGGGGAAAACGTGTT [XGTACX_site7168] | 6.35 |
| ATGTATGAAAAAATGTGTACATAATTTTTTTTTTTT [XGTACX_site5444] | 6.34 |
| AAATAATATAAACATACACACACACCGATATATATA [CACACA_site8945] | 7.07 |
| TTTCTAATTTATATCACACACATATAAATATAGTAA [CACACA_site6210] | 6.5 |
